The whole screen tested about 420,000 compounds, of which about 64,000 (15%) were called active. This list was built around the results that the source calls inconclusive (neither active nor inactive); the mix of calls is not that of the screen. The call rests on the fitted dose curve; in most records, active means well fitted inhibition curve with a large enough effect; inconclusive means small, poorly fitted or top-dose-only effect; inactive means flat fitted curve, though single readings scatter. No potency is given beside an inconclusive call; the fits are too rough.
Assay: qHTS for Inhibitors of human tyrosyl-DNA phosphodiesterase 1 (TDP1): qHTS in cells in absence of CPT; further: nearly all actives have a fitted effect of over 55% in size
Details: DT40 Tdp1-/- hTDP1 cells, no CPT, ATP luminescence, 48 h; activity change, negative = growth inhibition: at 46.2 µM (top of the series) unless noted
Procedure, shortened: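 Growth of hTDP1-complemented DT40 Tdp1-knockout cells is measured by ATP luminescence after at least 48 hr compound exposure at 37 °C, with DMSO substituting for the 20 nM CPT used in the parallel screen.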
On the % scale 0 is the no-effect control and ±100 the full control effect; potency means the concentration at half of the fitted maximal effect; tags describe the fitted curve by direction and shape.

Compound	Potency	activity change, negative = growth inhibition
CNC(=O)/C=C1\NC(C)(C)Cc2c1ccc1ccccc21	active: 20.6 µM	
CCNC(=S)NNC(=O)c1cccc(Br)c1	inconclusive [inhibitor, single point]	
COc1ccc2c(c1)OC[C@H]1[C@H]2N2C(=O)c3cc(F)ccc3NC(=O)[C@@]2(C)[C@H]1c1ccccc1	active: 18.4 µM	
NC1=NN(c2cccc(C(=O)O)c2)C(=O)C1	inactive	
COc1cc(-c2noc(-c3ccc(NCCc4ccccc4)c([N+](=O)[O-])c3)n2)cc(OC)c1OC	active: 4.11 µM	
c1ccc(-c2nnc3n2N=C(c2ccc4c(c2)OCO4)CS3)nc1	inactive	
CCOC(=O)C1=NN(c2ccc(Cl)cc2)C(=O)C1	inconclusive [inhibitor, single point]	
CC(/C=N/Nc1ccc2nncn2n1)=C\c1ccccc1	inconclusive [inhibitor, single point]	
Fc1ccc2c(c1)Sc1ccc(Cl)cc1CC2N1CCN(CCC2OCCO2)CC1 (stereo not given)	active: 18.4 µM	
CCc1nc(NCCc2ccccn2)c2nnn(Cc3ccccc3F)c2n1		inconclusive: -32.8% [inhibitor]
CC1(C)Cc2c(C#N)c(NCc3ccco3)nc(-c3ccco3)c2CO1	inconclusive [inhibitor, partial curve, poor fit]	
COC(=O)c1ccccc1NCc1cc(=O)oc2cc(O)c(O)cc12	inconclusive [inhibitor, single point]	
O=C(N/N=C/c1cccc2ccccc12)c1n[nH]c2c1CCCC2	active: 4.11 µM	
Cc1cc2ccccn2c1C(=O)c1ccc(NN)c([N+](=O)[O-])c1	inconclusive [inhibitor, single point]	
CC(=O)Nc1ccc(S(=O)(=O)Nc2cc(C)c(-n3nc4ccccc4n3)cc2O)cc1	inconclusive [inhibitor, single point]	
COc1ccc(-c2cc(C(F)(F)F)nc(N3CCN(Cc4ccccc4)CC3)n2)cc1OC	inconclusive [inhibitor, single point]	
CCOC(=O)c1c(C)[nH]c(C)c1C(=O)COC(=O)/C=C/c1cccc([N+](=O)[O-])c1	inconclusive [inhibitor, single point]	
COc1ccc(NS(=O)(=O)c2cccc(C(=O)N/N=C/c3cn(-c4ccccc4)nc3-c3ccccc3)c2)cc1	inconclusive [inhibitor, single point]	
COc1cc2c(cc1NC(=O)c1cccc(F)c1)CCCC2	inconclusive [inhibitor, partial curve]	
Cc1ccc(C)c(N2CCN(C(=O)c3ccc4c(Cl)c5c(nc4c3)CCCC5)CC2)c1	inconclusive [inhibitor, single point]	
CCCC(=O)N1CCN(c2ccc(NC(=O)C(C)(C)C)cc2Cl)CC1	inconclusive [inhibitor, single point]	
COc1cccc(C(C(=O)NC2CCCC2)N(C(=O)c2ccco2)c2ccc(C(C)=O)cc2)c1OC (stereo not given)	inconclusive [inhibitor, partial curve]	
CCCCOCCCNC(=O)C[C@@H]1C[C@@]2(C(=O)OCC)CCCC=C2N(CCc2ccc(OC)c(OC)c2)C1=O	inconclusive [inhibitor, single point]	

Compound	Potency	activity change, negative = growth inhibition
O=C(NCc1nc2ccccc2[nH]1)C1=C[C@H](c2ccc(C(F)(F)F)cc2)C[C@H](OCCCCO)O1	inconclusive [inhibitor, single point]	
COCC(=O)N1CCc2cc(OC)c(OC)cc2C1COc1ccc2c(C)cc(=O)oc2c1 (stereo not given)		inconclusive: -31.4% [inhibitor]
N#Cc1ccccc1S(=O)(=O)N1CCN(c2ccc(S(=O)(=O)N3CCOCC3)cn2)CC1	inconclusive [inhibitor, partial curve, poor fit]	
N#CC(C#N)=c1ccc2c(c1)NC1(CCCCC1)N=2	active: 10.3 µM	
C/C(CS(=O)(=O)c1ccc(Cl)cc1)=N/NC(N)=S	inactive	
CCCNC(=S)NC1CC2CCCC(C1)N2Cc1ccccc1OC (stereo not given)	inactive	
CC(=O)NC1(C)CCC2CC1C(C)=NC2(C)C (stereo not given)	inactive	
CNc1ccc(/C=C2\C=Cc3ccccc32)cc1Br	inconclusive [inhibitor, single point]	
COc1ccc2oc(C(=O)NC3(C)CCS(=O)(=O)C3)c(C)c2c1 (stereo not given)	inactive	
Cc1nc(N2CCN(c3ccccn3)CC2)c2c(C)c(C(=O)N3CCN(c4ccc(F)cc4)CC3)sc2n1	inconclusive [inhibitor, single point]	
CS(=O)(=O)c1ncc(N(Cc2ccccc2)Cc2ccco2)c(C(=O)Nc2cccc(C(F)(F)F)c2)n1	inconclusive [inhibitor, single point]	
COc1ccc(N2CCN(C(=S)Nc3ccc(C)cc3)CC2)cc1	inactive	
COc1ccc(/C=N/OCC(=O)OCC(=O)N(C)c2ccccc2)cc1	inactive	
COc1ccc(-n2ccnc2SCC(=O)NC2CCCC2)c(OC)c1	inactive	
O=C(NCC(=O)N1CCN(c2ccccc2)CC1)c1ccc(Br)o1	inactive	
c1ccc(-c2ccc3cnccc3n2)cc1	inactive	
CCOC(=O)C1(CC2CCCCO2)CCN(S(=O)(=O)c2ccccc2)CC1 (stereo not given)	inconclusive [inhibitor, single point]	
CC(C)c1ccc(CN2CCC3(CCC(CNC(=O)c4ccn(C)n4)O3)CC2)cc1 (stereo not given)	inconclusive [inhibitor, partial curve, poor fit]	
O=C(CC1SC(N2CCCC2)=NC1=O)Nc1ccc(C(=O)NCCOc2ccccc2F)cc1 (stereo not given)	inactive	
CSC1=N/C(=C/c2cccnc2)C(=O)N1Cc1ccc(Cl)cc1	inconclusive [inhibitor, single point]	
O=C(NCCc1ccc(Cl)cc1)c1ccc2nc(Cc3ccccc3)oc2c1	inconclusive [inhibitor, single point]	
O=C(NNC(=O)c1ccncc1)NC1CCCCC1	inactive	
